# Results: PubChem BioAssay AID2675 (National Center for Advancing Translational Sciences (NCATS), 2010)
# Out of some 280,000 compounds screened, about 100 (0.036%) were called active. The inconclusive results got no clear call from the source; some entries with a clear call stand among them for comparison. Calls come from the whole dose curve; as a rule, active = well fitted inhibition curve with a large enough effect in the signal ratio, with a control signal flat (not every such curve was filed as active); inconclusive = small, poorly fitted or top-dose-only effect, or effect the other way, or a change in a side signal; inactive = no such curve, though single readings can be large or run the other way; the % refers to the signal ratio. Potencies of inconclusive entries are doubtful fits and often do not repeat. “Side channel” marks fits to a control or component signal instead of the main read-out.
# Target: Muscleblind-like protein 1 (Homo sapiens) (UniProt Q9NR56)
# Sequence of UniProt Q9NR56 (Q9NR56 whole entry, looked up): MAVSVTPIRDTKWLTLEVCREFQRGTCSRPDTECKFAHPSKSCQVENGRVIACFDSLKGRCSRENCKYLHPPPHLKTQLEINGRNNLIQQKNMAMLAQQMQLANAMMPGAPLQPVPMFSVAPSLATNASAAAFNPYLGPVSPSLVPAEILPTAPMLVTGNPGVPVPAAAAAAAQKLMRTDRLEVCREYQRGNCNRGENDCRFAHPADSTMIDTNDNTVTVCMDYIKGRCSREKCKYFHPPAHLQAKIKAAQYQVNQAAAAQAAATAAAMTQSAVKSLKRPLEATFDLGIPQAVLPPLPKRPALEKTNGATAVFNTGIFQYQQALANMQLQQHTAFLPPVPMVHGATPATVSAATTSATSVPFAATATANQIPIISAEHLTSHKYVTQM
# Assay: qHTS Assay for Inhibitors of MBNL1-poly(CUG) RNA binding
# Details: TR-FRET MBNL1-His/biotin-(CUG)12 binding, 665/545 ratio; activity change, negative = inhibition: at 57.5 µM (top of the series)
# In short: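 Ratiometric TR-FRET (665 over 545 nm, excitation 340 nm) tracks disruption of MBNL1-His/biotin-(CUG)12 complex after 60 min at room temperature, with compounds at 92 nM to 58 uM final.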
# % is set by controls: 0 for no effect and ±100 for the full control effect; potency is the fitted concentration of half-maximal effect; tags give direction and shape of the fitted curve or compound fluorescence and quenching.
Compound,"activity change, negative = inhibition",Potency
Clc1ccc2ccc3cccnc3c2n1,inactive: -15.9%,
COC(=O)CSc1nnc(CCc2nc3ccccc3[nH]2)n1C,,"inconclusive: 39.8 µM [quencher, side channel, single point]"
COC(=O)N/N=C/c1cccc([N+](=O)[O-])c1,,"inconclusive: 14.1 µM [quencher, side channel, partial curve]"
Cc1cc(N/C=C/C(=O)c2cccc3ccccc23)no1,,"inconclusive: 22.4 µM [quencher, side channel, single point]"
O=C(N/N=C/c1ccc([N+](=O)[O-])cc1)c1cccs1,,"inconclusive: 3.16 µM [quencher, side channel, full curve]"
CC(C)C(=O)NC(=O)COC(=O)/C=C/c1cccs1,,"inconclusive: 11.2 µM [quencher, side channel, partial curve]"
C=CCNC(=S)Nc1ccc2nc(C)c(C)nc2c1,,"inconclusive: 22.4 µM [quencher, side channel, partial curve]"
Cc1cc(/C=N/Nc2ccc([N+](=O)[O-])cn2)c(C)n1-c1cccc(C(=O)O)c1,,"inconclusive: 25.1 µM [quencher, side channel, partial curve]"
O=[N+]([O-])c1ccc(N2CCCCC2)cc1N1CCOCC1,,"inconclusive: 12.6 µM [quencher, side channel, partial curve]"
O=C(O)CCn1c2ccccc2c2nc3ccccc3nc21,,"inconclusive: 28.2 µM [quencher, side channel, partial curve]"
O=[N+]([O-])c1ccc(SCCc2ccncc2)cc1,,"inconclusive: 12.6 µM [quencher, side channel, partial curve]"
O=C(Cn1cnc([N+](=O)[O-])n1)N/N=C/c1cc(Cl)ccc1O,,"inconclusive: 22.4 µM [quencher, single point]"
COc1ccc(C2=NCCc3cc(OC)c(OC)cc32)cc1OC,,"inconclusive: 2.51 µM [quencher, side channel, full curve]"
O=Cc1ccc(N2CCCCCC2)cc1,,"inconclusive: 17.8 µM [quencher, side channel, partial curve]"
CCN1CCN(C(=O)C2CCCN(S(=O)(=O)c3cccc4nsnc34)C2)CC1 (configuration not stated),,"inconclusive: 12.6 µM [quencher, side channel, partial curve]"
COc1ccc(/C=C2\N=C3CCCCCN3C2=O)cc1,,"inconclusive: 28.2 µM [quencher, side channel, partial curve]"
O=C(N/N=C/c1cccn1-c1ccc([N+](=O)[O-])cc1)C(O)c1ccccc1 (configuration not stated),,"inconclusive: 0.158 µM [quencher, side channel, full curve, poor fit]"
CC(=O)c1ccc2noc(-c3ccc(F)cc3)c2c1,,"inconclusive: 15.8 µM [quencher, side channel, partial curve]"
Cc1ccccc1C(=O)Nc1ccnn1C1CCN(CC2CC=CCC2)CC1 (configuration not stated),inactive: -5.16%,

Compound,"activity change, negative = inhibition",Potency
N=c1n(CC(=O)c2ccc([N+](=O)[O-])cc2)c2ccccc2n1Cc1ccccc1,inactive: 21.3%,
COc1ccc(-c2cn3cc([N+](=O)[O-])ccc3n2)cc1OC,,"inconclusive: 14.1 µM [quencher, side channel, partial curve]"
O=C(N/N=C/c1ccncc1)c1cc2ccccc2cc1O,,"inconclusive: 28.2 µM [quencher, side channel, partial curve]"
O=C(COC(=O)C1CCN(S(=O)(=O)c2cc([N+](=O)[O-])ccc2Cl)CC1)Nc1ncc(Cl)cc1Cl,,"inconclusive: 2.51 µM [quencher, side channel, full curve]"
Cc1onc(-c2ccccc2Cl)c1C(=O)O/N=C(\N)c1ccc([N+](=O)[O-])o1,,"inconclusive: 12.6 µM [quencher, side channel, partial curve]"
COc1ccccc1NC(=O)CSc1nc2nccnc2c(=O)n1Cc1cccs1,,"inconclusive: 14.1 µM [quencher, side channel, partial curve]"
Cc1ccc(-c2noc(CCC(=O)NCc3ccc4c(c3)OCO4)n2)cc1,,"inconclusive: 3.98 µM [fluorescent, side channel, single point]"
CCC(C)(C)NC(=O)/C=C/c1ccccc1[N+](=O)[O-],,"inconclusive: 31.6 µM [quencher, single point]"
O=[N+]([O-])c1ccc(N2CCN(CC3CCCCC3)CC2)cc1,,"inconclusive: 8.91 µM [quencher, side channel, partial curve]"
COc1cccc(CNC(=O)C(CCSC)NS(=O)(=O)c2ccc3c(c2)oc(=O)n3C)c1 (configuration not stated),,"inconclusive: 3.16 µM [quencher, side channel, single point]"
COC(=O)c1ccc(C(=O)OC)c(NC(=O)CSCc2ccccc2Br)c1,,"inconclusive: 0.631 µM [quencher, side channel, single point]"
O=C(Nc1ccc(O)cc1)c1ccc2c(c1)C(=O)N(Cc1ccccc1)C2=O,,"inconclusive: 14.1 µM [quencher, side channel, partial curve]"
COc1ccc(C2=NS(=O)(=O)N(C)C(C(=O)N3CCC(C(N)=O)CC3)=C2)cc1,,"inconclusive: 22.4 µM [quencher, side channel, partial curve]"
CC(C)CCN1CCN(Cc2cccc3nonc23)CC1CCO (configuration not stated),,"inconclusive: 22.4 µM [quencher, side channel, single point]"
COC(=O)C1CCN(c2ccc([N+](=O)[O-])cc2)CC1,,"inconclusive: 14.1 µM [quencher, partial curve]"
NC(=O)c1sc2nc3c(cc2c1N)CCC3,,"inconclusive: 20 µM [quencher, partial curve]"
O=C(NCc1ccccc1Cl)C1CCCN(S(=O)(=O)c2cccc3nsnc23)C1 (configuration not stated),,"inconclusive: 10 µM [quencher, side channel, partial curve]"
COc1cccc(NC(=O)CN2CCN(c3nc(-c4cccc(OC)c4)cs3)CC2)c1,,"inconclusive: 39.8 µM [quencher, side channel, single point]"
